# Measurements reported in the BET-seq Pho4 binding data (Le et al. 2018).
# This is one part of the list. These are noisy estimates, calculated here from bound and input reads.
# Target: T1, Pho4 (S. cerevisiae) (UniProt P07270)
# T1 sequence: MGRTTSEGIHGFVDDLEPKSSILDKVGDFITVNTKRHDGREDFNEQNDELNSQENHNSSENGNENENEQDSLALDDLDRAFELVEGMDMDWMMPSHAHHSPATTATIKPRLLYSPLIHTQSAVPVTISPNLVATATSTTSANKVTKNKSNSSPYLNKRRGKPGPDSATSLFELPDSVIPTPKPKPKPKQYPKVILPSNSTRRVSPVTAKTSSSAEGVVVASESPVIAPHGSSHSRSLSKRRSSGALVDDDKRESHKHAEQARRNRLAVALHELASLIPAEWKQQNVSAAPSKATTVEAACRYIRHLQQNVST
# Experiment: relative binding free energy (BET-seq); higher = weaker binding
# Conditions: reference: library average
row,Sequence,relative binding free energy [kcal/mol]
1,GGCTGCACGTGGTGCT,-0.16
2,TGGGTCACGTGGATCT,-0.02
3,TGTTTCACGTGTTTCA,0.25
4,ATTAGCACGTGTCCGG,-0.02
5,TTGTACACGTGTAGCG,0.04
6,GTTGTCACGTGGACGA,0.02
7,GTGAGCACGTGTTGGG,-0.01
8,TAAATCACGTGTTTGC,0.31
9,TAGTGCACGTGGTTTC,0
10,GGTAACACGTGGAGTG,-0.15
11,TAAATCACGTGTTAAT,0.29
12,TACAGCACGTGTGGGG,-0.11
13,AGTGGCACGTGGTTTG,-0.19
14,AGTAGCACGTGGCGGA,-0.03
15,CGGTCCACGTGGGTAA,0.11
16,GTTGGCACGTGCAAAT,0.13
17,CTTTGCACGTGTAGGT,-0.06
18,TTATTCACGTGTAGAA,0.24
19,GGGACCACGTGTTGGG,0
20,ATTGGCACGTGGTAGG,-0.11
21,TGGTTCACGTGGTTTC,0.32
22,TAGGGCACGTGGGACA,-0.03
23,ATTTCCACGTGCGGTT,0.02
24,GCGGGCACGTGTATTT,0.03
25,TAAGACACGTGTGGTG,0.03
26,TTTAACACGTGGCTTT,-0.17

row,Sequence,relative binding free energy [kcal/mol]
1,AGGTACACGTGGATTT,0.15
2,CGTAGCACGTGGTTGG,-0.11
3,CACAGCACGTGTGGGG,-0.14
4,TGGTGCACGTGAGATT,0.32
5,TACTTCACGTGTTATA,0.07
6,TGGATCACGTGCGTTA,0.1
7,TTGGGCACGTGGAATA,0.05
8,AGAAACACGTGAGGTT,0.32
9,CTTGTCACGTGCAGTG,0.1
10,TACTGCACGTGTGGCG,0.08
11,TTTATCACGTGTATTC,0.09
12,AGGTTCACGTGGGATG,0.28
13,ACATTCACGTGAGTGT,0.31
14,TTAGTCACGTGTAGTA,0.19
15,GACGTCACGTGTGTTT,0.35
16,GGAGGCACGTGTTGCG,-0.15
17,GTTAACACGTGTGGGT,0.11
18,TAGATCACGTGGGGTG,0.01
19,GAAGGCACGTGTATGG,-0.01
20,TGCTGCACGTGGTGGG,-0.07
21,GAATGCACGTGTGGTT,0.16
22,GATGACACGTGGAGTA,0.11
23,GCACGCACGTGAGGGG,0.08
24,TTGATCACGTGGGGCT,0.18
25,GCGTGCACGTGTTAAT,0.14
26,ATCGGCACGTGGGTTT,-0.18

row,Sequence,relative binding free energy [kcal/mol]
1,GTATACACGTGAGTTT,0.22
2,ACGGTCACGTGGGGCA,0.01
3,TGGCGCACGTGTTCGG,-0.11
4,CGCATCACGTGGTTTG,0.25
5,TAGGTCACGTGGAGTT,0.12
6,TAGGACACGTGGTAGA,-0.07
7,GAAGTCACGTGCGTGT,0.09
8,CGCAGCACGTGTAGGG,0.01
9,GCTGACACGTGGCGTG,-0.06
10,TTGTTCACGTGCTCGT,0.19
11,TTGCTCACGTGGATGT,0.31
12,GGTGACACGTGTCTGG,0.11
13,TTAAACACGTGGGTGT,-0.05
14,TAGGGCACGTGATTTA,-0.06
15,TTTATCACGTGTTCAG,0.12
16,AAGAGCACGTGGAGAG,-0.08
17,TATGACACGTGAAGTT,0.32
18,TGGTCCACGTGTATGG,0.12
19,TGTATCACGTGCTATT,-0.13
20,GTAGCCACGTGTAGTG,0.17
21,TGAAGCACGTGGTGGA,0.02
22,TTTGCCACGTGGGTCT,0.02
23,ATCGTCACGTGGTGTT,0.07
24,ACGTGCACGTGAGTGA,0.05
25,TAGCTCACGTGAGGTG,0.32
26,GGAGCCACGTGTATTG,0.19

row,Sequence,relative binding free energy [kcal/mol]
1,CGCGTCACGTGAGGTG,0.34
2,ACTGTCACGTGAGGTG,0.25
3,TGCTTCACGTGAGGCG,0.34
4,GATTGCACGTGATTTT,0.24
5,ATTAGCACGTGCTTTG,-0.21
6,CGTTTCACGTGCCGGG,0.31
7,TATGTCACGTGCTGGG,0.01
8,TGGGCCACGTGAGCTT,0.17
9,TGGATCACGTGTTGAG,0.15
10,ATGTGCACGTGTCTTA,-0.1
11,GTGTACACGTGAGCTT,0.3
12,GTGCCCACGTGGTTGG,-0.07
13,AAATTCACGTGTTGTC,0.24
14,TTAATCACGTGGGGCG,0
15,TAAGGCACGTGTATCG,-0.09
16,CTTTACACGTGGAAGT,0.12
17,TGTAACACGTGTATGT,-0.01
18,AAGGGCACGTGTCTAT,-0.06
19,GGGCACACGTGGTGTA,0.01
20,GTATACACGTGTGTAG,0.01
21,GTGATCACGTGGTGCA,0.02
22,TAAGTCACGTGCGCGT,0.09
23,TCCGGCACGTGTGGGT,-0.04
24,TAAGTCACGTGTAAGG,0.11
25,ATTTGCACGTGCTTTT,-0.09
26,TGTATCACGTGACTTT,0.18

row,Sequence,relative binding free energy [kcal/mol]
1,GTTGGCACGTGTTGGG,0.05
2,CTTGTCACGTGGCTAG,0.04
3,TTCGTCACGTGGTGTG,0.06
4,TTTTTCACGTGTTGAA,0.26
5,AACGTCACGTGTTGGG,0.13
6,GGCGTCACGTGTTTAA,0.17
7,TGAGACACGTGTAGGT,0.04
8,ATAGTCACGTGTGGCG,0.12
9,TCGGGCACGTGTGGCT,-0.06
10,GTTAGCACGTGTATAT,-0.06
11,GGACTCACGTGGTCGT,0.3
12,AGAGACACGTGCGGGT,-0.19
13,TGTAGCACGTGAGGTC,0.18
14,TTATGCACGTGCAGTG,-0.12
15,ATGGGCACGTGGGGTA,-0.31
16,AGTATCACGTGCGAGG,0.02
17,ATGGACACGTGAGGGA,0.17
18,TAAAGCACGTGTGCGG,-0.02
19,GTTGACACGTGGAGGT,0.09
20,GAGATCACGTGAAGGT,0.29
21,ATATGCACGTGCTAGT,-0.14
22,TTAGTCACGTGACTGG,0.19
23,TGGTGCACGTGTGATT,0.19
24,GTGGTCACGTGCGGGA,0.09
25,TTGTTCACGTGAAGGA,0.37
26,GGATTCACGTGCTTTG,0.31

row,Sequence,relative binding free energy [kcal/mol]
1,GTAGACACGTGTGGAA,0.02
2,GTCGTCACGTGGGTAT,0.04
3,TCTAGCACGTGTGTGC,-0.03
4,TGGTGCACGTGGGCTA,-0.26
5,AATGCCACGTGTGATG,0
6,GTCTGCACGTGGTGTC,0.03
7,TGGGGCACGTGGTCAT,-0.21
8,AGGAGCACGTGGGTTT,-0.2
9,TGTTACACGTGGGGGC,-0.02
10,GAGCTCACGTGTTTTG,0.31
11,GAGGTCACGTGTGTGC,0.07
12,AAATTCACGTGTGAGG,0.4
13,CAGGGCACGTGGGCTT,-0.13
14,ATATGCACGTGGTGCG,-0.02
15,AGTGCCACGTGTTGTC,-0.1
16,CGTTGCACGTGGAAGA,0.09
17,TCTTTCACGTGTTCGT,0.13
18,ATAGACACGTGGTTCG,-0.02
19,ATCGTCACGTGTGTCG,0.12
20,CCGTGCACGTGATTGG,0.2
21,CGGGACACGTGAGGTA,0.27
22,ATAATCACGTGGGCGG,0.02
23,GTGTACACGTGATTAT,0.15
24,CCAGTCACGTGAGGGG,0.32
25,GTTGACACGTGCAGGG,-0.04
26,ATTATCACGTGGCTGT,-0.03

row,Sequence,relative binding free energy [kcal/mol]
1,GTGGTCACGTGACTTA,0.09
2,TATGCCACGTGCTGTT,-0.12
3,AGGTGCACGTGGAGCG,0
4,TGGTGCACGTGGTGGG,-0.01
5,GGATTCACGTGGTCGG,0.39
6,CAGTACACGTGTTTGG,-0.06
7,CAGTGCACGTGGTGGT,-0.15
8,TAGGTCACGTGGCCGG,0.04
9,TTTGTCACGTGTCTTA,0.11
10,TTGGGCACGTGCTCTG,-0.13
11,GTGGGCACGTGGTCGT,-0.12
12,TGGTACACGTGACTGT,0.16
13,GCGGACACGTGGTGAG,0.17
14,TGTCACACGTGCTTGG,-0.05
15,TAAGGCACGTGTAGTT,0
16,GTAGGCACGTGATTTT,0.1
17,CAAGGCACGTGGGGAA,-0.17
18,AAGGGCACGTGTAGCT,-0.16
19,AGTCGCACGTGGTGAA,-0.15
20,CGGGCCACGTGGGGGC,-0.31
21,AGATTCACGTGGGAGT,0.15
22,GTGGGCACGTGCGGCA,-0.15
23,TGTCTCACGTGTATTT,0.25
24,CGGTGCACGTGAATTA,0.34
25,TGTTTCACGTGTTGTG,0.27
26,AAATTCACGTGGAGGA,0.23

row,Sequence,relative binding free energy [kcal/mol]
1,CGGTCCACGTGTGTGG,0.07
2,GAGAGCACGTGTGGTG,0.03
3,GTTAGCACGTGACAGG,0.24
4,ATTATCACGTGGTGTC,0.08
5,GCTCTCACGTGGTGTG,0.07
6,TTATGCACGTGCTTAT,0
7,TTAGGCACGTGCGGTC,-0.17
8,AAATGCACGTGGAGAG,-0.03
9,GCGAGCACGTGTCGGG,-0.07
10,TGGGTCACGTGGATAG,0.13
11,TGAATCACGTGGGGAA,0.15
12,ATGCTCACGTGTTTGA,0.19
13,ATTAACACGTGGGATA,-0.05
14,TATGTCACGTGAGTAG,0.32
15,TATTGCACGTGTAGCT,-0.12
16,CGGTTCACGTGAGCGT,0.36
17,AGGTGCACGTGTGGGT,-0.04
18,CTGGTCACGTGGGCTT,-0.19
19,CTGGACACGTGTTTGT,-0.01
20,TAATGCACGTGATAGT,0.1
21,AGGTCCACGTGGTTGG,-0.09
22,ATGGTCACGTGACTGA,0.33
23,TAGGGCACGTGGCGCT,-0.31
24,GTATTCACGTGGATCG,0.3
25,AGTCGCACGTGTGGCG,-0.03
26,GGGTGCACGTGTAGGA,0.11

row,Sequence,relative binding free energy [kcal/mol]
1,TTGTCCACGTGTTCAT,0.09
2,TTAGACACGTGAAGGG,0.32
3,GGAGGCACGTGGGGGC,-0.18
4,ACATTCACGTGGTGTT,0.05
5,AGAGCCACGTGGAGGG,-0.26
6,CGTCTCACGTGTGGGT,0.03
7,TGAGCCACGTGGGCTT,-0.13
8,AAATCCACGTGTTGTT,0.13
9,TTGTACACGTGTGTAC,0.11
10,TCTTGCACGTGGAAGT,0.13
11,GAGGTCACGTGGGGGC,0.02
12,TAGGGCACGTGGGGCG,-0.3
13,TGGGTCACGTGGCTGA,0.07
14,ATGGGCACGTGAGCTG,0
15,GGGTTCACGTGTCTAT,0.17
16,TTTGTCACGTGTAAGG,0.13
17,GAGGACACGTGATGTT,0.16
18,GCTTACACGTGTGCGG,0.12
19,GTTTGCACGTGTTCAG,0.03
20,TTAGACACGTGTGAGT,0.15
21,GAGTTCACGTGAGGGC,0.46
22,CTGAACACGTGGTTGG,-0.02
